Laboratory results taken from PubChem BioAssay AID1346428 (National Center for Advancing Translational Sciences (NCATS), 2018).
The whole screen tested about 48,000 compounds, of which about 1,200 (2.5%) were called active. Roughly 2% stayed inconclusive and do not appear here.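 The calls were made as follows: active = activation of at least 60% and not above a set upper limit (about 1 call in 100 departs from these limits); inconclusive = activation of 40% to 60%, or above that upper limit; inactive = activation under 40%.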 The list shows a part of the results.

The compounds below were run against Probable G-protein coupled receptor 32 (Homo sapiens) (UniProt O75388) (assay: qHTS for Agonists of Human Resolvin D1 Receptor DRV1). Conditions: CHO-K1 GPR32 beta-arrestin PathHunter luminescence, 90 min; at 76.9 µM; hits give high values; zero percent set by DMSO-only wells.
Summary of the method: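 Luminescent readout of beta-Gal complementation quantifies ligand-induced beta-arrestin association with GPR32 in CHO-K1 cells; 90 min compound incubation at 37 °C, detection 1 h at room temperature.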
Also: 0% is about no effect.

Sequence of UniProt O75388 (O75388 whole entry, looked up): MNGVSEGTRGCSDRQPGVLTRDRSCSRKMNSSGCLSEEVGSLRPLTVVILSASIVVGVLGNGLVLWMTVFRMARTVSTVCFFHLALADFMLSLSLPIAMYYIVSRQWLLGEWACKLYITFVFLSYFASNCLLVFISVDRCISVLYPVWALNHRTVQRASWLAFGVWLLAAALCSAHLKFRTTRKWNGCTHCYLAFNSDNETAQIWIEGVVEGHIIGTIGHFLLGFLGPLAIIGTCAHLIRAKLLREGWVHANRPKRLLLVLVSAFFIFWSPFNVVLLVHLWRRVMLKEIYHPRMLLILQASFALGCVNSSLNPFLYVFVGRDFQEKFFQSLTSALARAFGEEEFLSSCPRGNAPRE

activation, inactive:
COc1cc2c(cc1OC)C(c1ccc(F)cc1)N(c1ccccc1)C(=O)C2 (centres undefined) -4.39%, Cc1ccc2c(c1)cc(C(=O)NCc1ccc(F)cc1)n2C 10.2%, CCOCC(=O)Nc1ccc(-c2cn3c(C)csc3n2)cc1 6.59%, COc1ccccc1N1CCN(c2ccc(=O)n(CC(=O)O)n2)CC1 -7.45%, COc1ccc(S(=O)(=O)NCC(c2ccc(N(C)C)cc2)N2CCOCC2)cc1 (centres undefined) -10.8%, COc1ccc(-c2[nH]c3ccccc3c2SCCNC(=O)c2ccc(S(=O)(=O)N(C)C)cc2)cc1 -24.3%, COC(=O)c1cccc(Nc2nn3c(=O)c4cc5c(cc4nc3s2)OCO5)c1 -2.28%, COc1ccc(CNC(=O)CSc2ncc(S(=O)(=O)c3ccc(Br)cc3)c(=O)[nH]2)cc1 -18.2%, COC(=O)Nc1nc2ccc(Sc3ccccc3)cc2[nH]1 11.5%, CCCn1c(=O)[nH]c(=O)c2[nH]cnc21 -10.9%, Cc1ccc2[nH]c3c(=O)n(CC(=O)NC(C)C)ncc3c2c1 -7.99%, Cc1nn(-c2ccc(N3CCOCC3)nn2)c(C)c1CCC(=O)NCc1ccccc1F -24.4%, O=C(CSC1=Nc2ccccc2N=C(c2ccc(F)cc2)C1)NCc1ccccc1Cl -41.8%, CCCCOc1ccc(CNC(=O)Cc2ccc(NC(=O)N3CCSc4ncccc43)cc2)cc1 5%, CCNc1oc(-c2ccc(COc3ccc(Cl)cc3)o2)nc1C#N 19.7%, NC(=O)c1ccccc1NC(=O)Cn1nc(Cc2cccnc2)c2ccccc2c1=O -23.2%, CCOc1ccc(CNC(=O)c2sc3ncnc(N(C)C4CCCCC4)c3c2C)cc1 -15.7%, Cc1ccc(Cl)cc1NC(=O)CSc1nc2c(c(=O)[nH]1)CN(Cc1ccccc1)CC2 8.01%, COc1ccc(S(=O)(=O)N2CCN(CC(=O)Nc3ccc(Cl)c(C(F)(F)F)c3)CC2)cc1 4.74%, Cc1cccc(NC(=O)CSc2nc(=O)n(Cc3ccccn3)c3c2CCC3)c1C -4.83%, COc1ccc(CNC(=O)c2cc3cccc4c3n2CC(C)S4)c(OC)c1 (centres undefined) -19.4%, O=C(CSc1ncc(CO)n1Cc1ccc(Cl)cc1)NCc1ccc(F)cc1 39.5%, COc1ccc(C(=O)Oc2cc(-c3ccc4c(c3)OCO4)cc(=O)c3c(C)oc(C)c23)cc1 -6.9%, COC(=O)c1cc2oc(C)cc2n1CC(=O)Nc1cc(Cl)ccc1OC -20.4%, Cc1ccccc1C(=O)Nc1ccc(C(=O)OCc2cc(=O)n3nc(C(C)C)sc3n2)cc1 -18.5%, COc1ccc(NC(=O)C2Cc3ccccc3N2C(=O)c2ccccc2)cc1OC (centres undefined) -2.92%, Cc1ccc(-c2onc(C)c2C)cc1S(=O)(=O)Nc1ccc(Cl)cn1 -1.9%, CCOC(=O)c1ccc(NC(=O)CCc2c(C)nc3c(-c4ccc(F)cc4)c(C)nn3c2C)cc1 -1.93%, CCOc1ccc(NC(=O)N(C(C)C)C2CCN(C(C)=O)CC2)cc1 -13.1%, COc1ccc(C2C=C(c3ccccc3)Nc3nc(NC(=O)/C=C/c4ccc(F)cc4)nn32)cc1 (centres undefined) -16.5%, COc1ccc2c(c1)c1c(c(=O)n(-c3ccccc3C)c(=O)n1CC(=O)N1CCCC1)n2C -7.38%, COc1cccc(CN2C(=O)CN(C3CCCCC3)C(=O)C2c2ccc(OC)c(OC)c2)c1 (centres undefined) -2.42%, CCOc1ccc(CNC(=O)C2CCN(S(=O)(=O)c3cn(C)cn3)CC2)cc1OC -11.6%, COc1ccc(-c2cc(C(F)(F)F)c(C#N)c(SCC(=O)Nc3ccccc3F)n2)cc1 -9.52%, CCC(C)Sc1c(C(C)C)cnc2c1c(=O)n(C)c(=O)n2C (centres undefined) -24.8%, Cc1nn(C)c2c1c(-c1ccccc1)cc(=O)n2Cc1ccc(Cl)cc1 -10.6%, COc1cccc(CNc2nccn(-c3ccc(OC)c(OC)c3)c2=O)c1 -0.901%, COc1ccc(-n2c(/C=C/c3c(C)[nH]c4ccccc34)nc3ccccc3c2=O)cc1 -5.03%, COc1ccc(CNC(=O)c2cnn(-c3ccc(C)cc3)c2-n2cccc2)cc1OC -1.76%, CCOc1ccc(S(=O)(=O)N2CCC(N3CCN(Cc4ccc(C)cc4)C(=O)C3=O)CC2)cc1 -14%, COc1ccccc1C(=O)Nc1ccc(OCc2cc(=O)n3ccc(C)cc3n2)cc1 -6.36%, COCc1cc(C)nc2sc3c(c12)NC(c1ccc(O)cc1)N(c1ccc(C)cc1)C3=O (centres undefined) -27.6%, O=C(Cn1c2ncccc2c(=O)n1-c1ccccc1)Nc1ccc(Cl)cc1C(F)(F)F 2.91%, COc1ccc(C)cc1-n1c(-c2ccc(C)cc2)cc2c1CC(C)(C)CC2=O -26.8%, CCn1c(=N)c(C(=O)NC2CCCC2)cc2c(=O)n3ccccc3nc21 10.6%, Cc1nn(C(=O)c2ccccc2)c(C)c1S(=O)(=O)N1CCCCCC1 -1.08%, CCN(C(=O)c1cn(-c2ccc(OC)cc2)c(=O)c2ccccc12)c1cccc(Cl)c1 -24.4%, O=C(OCc1cccc(C(F)(F)F)c1)c1ccc(-c2nnn(Cc3ccc(F)cc3)n2)cc1 1.65%, CCOc1ccc(C(=O)OCc2cc(=O)n3cc(C)sc3n2)cc1 -4.01%, COc1ccc(-c2nc3scc(CCNC(=O)c4cc(OC)cc(OC)c4)n3n2)cc1 16.4%, CC(C)N1CCc2nc(SCC(=O)Nc3cccc(F)c3)[nH]c(=O)c2C1 -9.91%, CCOC(=O)C1CCCN(S(=O)(=O)c2ccc3[nH]c(=O)oc3c2)C1 (centres undefined) -5.31%, COc1ccccc1NC(=O)c1sc2ncn(Cc3ccccc3Cl)c(=O)c2c1C -7.92%, CCc1ccccc1NC(=O)c1sc(-n2nc(C)c(Cc3ccc4c(c3)OCO4)c2C)nc1C -7.3%
